# In publication PMC6451091:
# Some of the results follow. For some assays here: At the low end of the ranking the order means little. For some assays here: The protein was read in a cell extract, so binding may be indirect.
# Target: PU.1 (IVT) (UniProt P17947)
# Test: protein-binding microarray (PBM)
# Details: 20 mM HEPES pH 7.9, 100 mM NaCl, 1 mM DTT, 0.2 mg/mL BSA, 0.02% Triton X-100, 2% milk, 0.4 mg/mL salmon testes DNA; 1 h; temperature not stated; high values mean tight binding; double strand, one strand shown; sequences stand for … in GCCTAGCAC…GTGCTAGGTCTTGATTCGCTTGACGCTGCTG
row,Sequence,binding signal
1,CTGGCAGCTGCCTGAAACTC,-0.536 z-score
2,AGATTGTCTGCGTGAAAGTA,0.0514 z-score
3,CTCCAAATGCATTTCTTGGT,-0.237 z-score
4,GGGATGTATCCTTGTGGTTG,0.0905 z-score
5,TACGTTTTTCAGAGAATTTC,0.314 z-score
6,CGCAAGGCTGCCTGAAACTC,-0.36 z-score
7,ATAAAGATACATTCATTCTC,-0.0697 z-score

# Target: PU.1 (endogenous, THP-1 nuclear extract) (UniProt P17947)
# Test: nuclear extract protein-binding microarray (nextPBM)
# Details: 20 mM HEPES pH 7.9, 100 mM NaCl, 1 mM DTT, 0.2 mg/mL BSA, 0.02% Triton X-100, 2% milk, 0.4 mg/mL salmon testes DNA; 1 h; temperature not stated; high values mean tight binding; double strand, one strand shown; sequences stand for … in GCCTAGCAC…GTGCTAGGTCTTGATTCGCTTGACGCTGCTG
row,Sequence,binding signal
1,AGTCAGCAAACACCCACCAC,-0.435 z-score
2,GCATCGTCGGTGTATTTTGT,-0.482 z-score
3,TCCCTTCCATGGACAGGGGA,-0.471 z-score
4,GCCAGCCCCCAACCCTGGTC,-0.25 z-score
5,TTCCCCGCAGGCCGGGCCGA,2.46 z-score
6,ATTGCAGTGAGCTGTGACCA,-0.47 z-score
7,TATCTGCTGTATATCATTGG,-0.481 z-score
8,TTCCTCACAGTGAGGAAGAG,5.69 z-score
9,TTTCAGTCTTCAATCCCTGA,-0.173 z-score
10,TTTTTAACAAGAAGTTCTTG,0.588 z-score
11,GCACATAGCCTGGCATTTAG,-0.275 z-score
12,CTTGAAGAGAACACAACGCT,-0.395 z-score
13,GGGAGTTTTAGAAGTTGGAG,-0.596 z-score
14,ATTTTAGCTGCCTGAAAGCC,-0.704 z-score
15,TCCACAGCAAGGCTGCCGTG,0.034 z-score
16,AGTCAGCCTGGTGGCCTTCT,-0.442 z-score
17,TAAAAGGAAAAGAGGGCTCC,-0.232 z-score
18,GTCACTCTCAGATACTGCCA,-0.346 z-score
19,GGCCCTGGGTGGCAGGTTTG,-0.233 z-score
20,TGAGGGGATCGACATTGAAA,-0.413 z-score

row,Sequence,binding signal
1,GAGTGAACTCACGTCCACAC,-0.482 z-score
2,ACAAAAATACTATCTGACAC,-0.588 z-score
3,CCATGCATAAAATTTTATGA,0.000896 z-score
4,TTCTTTCGCAGGTCAGGGCA,0.369 z-score
5,GGATCCGCTGGGAGGGGTGG,-0.163 z-score
6,AAGGTTCTAGAGATCTATTG,-0.466 z-score
7,AGGCAGTGAGCTAAGATTGC,-0.683 z-score
8,GCTGCCTGAAAATGTGGCTC,-0.548 z-score
9,TTGCACAAGGAGGAAGTGAG,6.5 z-score
10,CAGGAGTTCGAGACCAGCTT,-0.309 z-score
11,AGGGAGCAGCCTCCTGACTT,-0.267 z-score
12,AAAGACGCTGTCTAAAATAT,-0.0468 z-score
13,TTCCACCCCCTCAGAGGAAG,2.01 z-score
14,CTGGCAGCTGCCTGAAACTC,-0.606 z-score
15,AGATTGTCTGCGTGAAAGTA,-0.446 z-score
16,CTCCAAATGCATTTCTTGGT,-0.255 z-score
17,GGGATGTATCCTTGTGGTTG,0.178 z-score
18,TACGTTTTTCAGAGAATTTC,-0.154 z-score
19,CGCAAGGCTGCCTGAAACTC,-0.594 z-score
20,ATAAAGATACATTCATTCTC,-0.452 z-score
